# About 16,000 (4.4%) of roughly 360,000 compounds were called active. Inconclusive results, whose numbers are uncertain, are shown with a selection of clear calls. Calls come from the whole dose curve; as a rule, active = well fitted inhibition curve with a large enough effect; inconclusive = small, poorly fitted or top-dose-only effect; inactive = no such curve, though single readings can be large or run the other way. A potency beside an inconclusive call is a rough fit, not a confirmed value.
# Molecular target: Bromodomain adjacent to zinc finger domain protein 2B (Homo sapiens) (UniProt Q9UIF8)
# Chain of UniProt Q9UIF8 (Q9UIF8 whole entry, looked up, the tested form may be a part): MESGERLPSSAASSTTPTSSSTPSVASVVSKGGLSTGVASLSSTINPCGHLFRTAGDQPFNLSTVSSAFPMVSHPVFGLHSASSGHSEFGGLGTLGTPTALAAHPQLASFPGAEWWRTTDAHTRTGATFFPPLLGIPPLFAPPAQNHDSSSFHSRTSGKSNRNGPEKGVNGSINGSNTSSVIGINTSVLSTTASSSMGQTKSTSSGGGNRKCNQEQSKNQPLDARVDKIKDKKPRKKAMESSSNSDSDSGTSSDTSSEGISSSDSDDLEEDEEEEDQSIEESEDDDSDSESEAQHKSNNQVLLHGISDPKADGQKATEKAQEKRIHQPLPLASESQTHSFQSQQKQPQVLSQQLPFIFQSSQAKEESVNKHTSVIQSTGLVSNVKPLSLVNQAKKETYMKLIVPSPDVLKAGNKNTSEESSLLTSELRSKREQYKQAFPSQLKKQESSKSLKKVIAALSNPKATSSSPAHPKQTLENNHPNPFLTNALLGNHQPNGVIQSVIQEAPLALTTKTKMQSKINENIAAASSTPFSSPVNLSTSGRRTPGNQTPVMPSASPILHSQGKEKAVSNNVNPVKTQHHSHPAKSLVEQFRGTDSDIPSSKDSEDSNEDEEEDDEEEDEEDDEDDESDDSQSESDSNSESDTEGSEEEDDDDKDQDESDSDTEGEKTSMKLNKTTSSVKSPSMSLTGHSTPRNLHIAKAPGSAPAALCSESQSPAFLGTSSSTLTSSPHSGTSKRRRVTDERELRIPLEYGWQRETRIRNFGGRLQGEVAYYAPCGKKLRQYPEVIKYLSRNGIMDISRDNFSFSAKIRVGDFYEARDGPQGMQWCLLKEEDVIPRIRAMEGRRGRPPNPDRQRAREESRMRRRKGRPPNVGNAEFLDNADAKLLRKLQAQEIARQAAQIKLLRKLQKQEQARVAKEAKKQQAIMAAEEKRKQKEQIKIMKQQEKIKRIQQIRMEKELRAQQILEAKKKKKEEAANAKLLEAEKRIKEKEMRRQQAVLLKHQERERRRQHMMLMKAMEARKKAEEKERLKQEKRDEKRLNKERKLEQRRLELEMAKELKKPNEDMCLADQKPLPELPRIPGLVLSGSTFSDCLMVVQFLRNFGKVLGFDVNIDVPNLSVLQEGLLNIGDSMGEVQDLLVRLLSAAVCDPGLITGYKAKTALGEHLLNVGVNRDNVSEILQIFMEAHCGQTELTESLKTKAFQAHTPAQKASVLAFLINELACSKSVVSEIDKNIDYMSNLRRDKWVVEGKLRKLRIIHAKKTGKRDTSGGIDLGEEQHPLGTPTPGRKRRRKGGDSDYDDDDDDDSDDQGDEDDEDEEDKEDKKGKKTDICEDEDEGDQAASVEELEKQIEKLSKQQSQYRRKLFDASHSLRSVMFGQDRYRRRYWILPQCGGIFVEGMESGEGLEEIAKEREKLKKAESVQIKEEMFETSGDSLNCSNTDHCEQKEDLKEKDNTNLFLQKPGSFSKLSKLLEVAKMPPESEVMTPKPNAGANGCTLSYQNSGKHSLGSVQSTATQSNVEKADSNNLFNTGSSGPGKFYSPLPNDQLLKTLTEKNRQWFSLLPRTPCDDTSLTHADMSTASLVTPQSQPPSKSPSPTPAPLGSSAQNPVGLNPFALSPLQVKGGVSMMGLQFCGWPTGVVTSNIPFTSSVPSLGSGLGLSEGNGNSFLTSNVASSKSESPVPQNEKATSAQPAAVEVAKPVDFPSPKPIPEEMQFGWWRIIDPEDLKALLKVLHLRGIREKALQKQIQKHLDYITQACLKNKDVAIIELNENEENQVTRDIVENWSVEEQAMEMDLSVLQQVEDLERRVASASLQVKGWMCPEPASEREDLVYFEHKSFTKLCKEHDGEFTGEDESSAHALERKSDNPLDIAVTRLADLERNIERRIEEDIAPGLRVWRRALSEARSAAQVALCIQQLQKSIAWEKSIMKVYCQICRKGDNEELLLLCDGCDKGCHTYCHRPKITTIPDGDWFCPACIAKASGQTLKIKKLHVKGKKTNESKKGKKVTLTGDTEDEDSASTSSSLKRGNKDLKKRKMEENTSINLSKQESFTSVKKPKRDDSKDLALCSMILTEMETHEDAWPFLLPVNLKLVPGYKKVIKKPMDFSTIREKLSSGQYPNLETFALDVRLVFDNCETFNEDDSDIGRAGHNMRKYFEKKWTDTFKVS
# Experiment: qHTS Assay for Inhibitors of BAZ2B; note: nearly all actives have a fitted effect of over 60% in size
# Settings: AlphaScreen BAZ2B-H3K14Ac peptide displacement; activity change, negative = inhibition: at 114 µM (top of the series) unless noted
# Procedure, shortened: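 Complex of BAZ2B and biotin-H3K14Ac (50 nM apiece) forms over 30 min at RT, then faces library compounds up to 110 uM for another 30 min; AlphaScreen beads added, 20 min dark incubation, luminescence read.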
# % is set by controls: 0 for no effect and ±100 for the full control effect; potency is the fitted concentration of half-maximal effect; tags give direction and shape of the fitted curve.
Structure (SMILES),"activity change, negative = inhibition",Potency
O=C(Cn1c(=O)n(Cc2nc(-c3ccccc3)no2)c(=O)c2ccccc21)Nc1cccc(Cl)c1,inactive: -14.1%,–
Cc1[nH]c2ccccc2c1N=Nc1c(C)n(C)n(-c2ccccc2)c1=O,–,"inconclusive: 39.8 µM [inhibitor, partial curve]"
COc1ccc(-c2c(C)c3ccc(O)c(CN4CCCC(C)C4)c3oc2=O)cc1OC (centres undefined),–,"inconclusive: 79.4 µM [inhibitor, single point]"
O=C(CCS(=O)(=O)c1ccccc1)Nc1nc2cc3c(cc2s1)OCCO3,–,active: 79.4 µM
COc1ccc(-c2cnc(SCC(=O)Nc3cc(C)on3)n2Cc2ccco2)cc1,–,active: 44.7 µM
COc1cccc(C(=O)NC(C)c2ccc(-c3ccccc3)cc2)c1OC (centres undefined),inactive: 18.6%,–
CN(C)c1ccc(N=Nc2ccc(S(N)(=O)=O)cc2)cc1,–,"inconclusive: 28.2 µM [inhibitor, partial curve]"
COc1ccc(-c2[nH]ncc2-c2ccc3c(c2)OCCO3)c(O)c1,–,"inconclusive: 44.7 µM [inhibitor, partial curve]"
Clc1ccc(-c2csc(N/N=C/c3cccnc3)n2)c(Cl)c1,–,"inconclusive: 44.7 µM [inhibitor, partial curve]"
Cc1cc(C)cc(C(=O)NCC(c2ccc(N(C)C)cc2)N2CCCC2)c1 (centres undefined),–,"inconclusive: 35.5 µM [inhibitor, partial curve]"
O=C(NCCC1=CCCCC1)C1CCN(C(=O)N2CCOc3ccc(Cl)cc32)CC1,inactive: -33.8%,–
O=C(NCc1ccco1)c1ccc2c(c1)N(Cc1ccc(Cl)cc1)C(=O)c1ccccc1S2(=O)=O,–,"inconclusive: 25.1 µM [inhibitor, full curve, poor fit]"
COc1ccccc1C1C(C#N)=C(N)Oc2cc(C)n(Cc3ccccn3)c(=O)c21 (centres undefined),–,"inconclusive: 89.1 µM [inhibitor, single point]"
COc1cc(Cl)c(S(=O)(=O)NCCCn2ccnc2)cc1Cl,inactive: -10.1%,–
COc1ccccc1CN(Cc1cc2cc(C)ccc2[nH]c1=O)Cc1nnnn1CC1CCCO1 (centres undefined),–,"inconclusive: 79.4 µM [inhibitor, single point]"
S=c1[nH]nc(-c2cc(-c3ccccc3)n[nH]2)n1/N=C/C(Br)=C/c1ccccc1,–,active: 10 µM
COc1ccc(NC(=O)NNC(=O)C(C)Oc2ccc3ccccc3c2)cc1OC (centres undefined),inactive: -24.7%,–
CC(=O)N1CCOc2ccc(S(=O)(=O)N3CCN(c4cccc(C(F)(F)F)c4)CC3)cc21,–,"inconclusive: 70.8 µM [inhibitor, single point]"
S=C(NCCCn1ccnc1)Nc1ccc(Cl)cc1Cl,–,active: 50.1 µM

# — PubChem BioAssay AID504333 (National Center for Advancing Translational Sciences (NCATS), 2011)
